# Reference: PubChem BioAssay AID504332 (National Center for Advancing Translational Sciences (NCATS), 2011)
# The campaign covered roughly 350,000 compounds. About 31,000 (8.9%) were called active. The shares of active, inactive and inconclusive entries below differ from those in the screen. Calls follow the shape of the dose curve; as a rule, active = well fitted inhibition curve with a large enough effect; inconclusive = small, poorly fitted or top-dose-only effect; inactive = no such curve, though single readings can be large or run the other way. Where the call is inconclusive, the potency comes from a doubtful curve fit.
# Target: Histone-lysine N-methyltransferase EHMT2 (Homo sapiens) (UniProt Q96KQ7)
# Experiment: qHTS Assay for Inhibitors of Histone Lysine Methyltransferase G9a; also: nearly all actives have a fitted effect of over 75% in size
# Details: G9a H3K9 monomethylation, AlphaScreen, 2 h; activity, negative = inhibition: at 59 µM (top of the series) unless noted
# Summary of the method: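 G9a (20 nM) preincubated 15 min RT with compounds, then 500 nM biotinylated H3K9 peptide and 20 uM SAM added; 2 h RT reaction. Monomethyl-H3K9 product detected by AlphaScreen with anti-H3K9me1 antibody, streptavidin donor and anti-rabbit IgG acceptor beads.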
# % is scaled to controls: 0 for no effect and ±100 for the full control effect; potency is read from the fitted curve at half-maximal effect; tags tell the direction and shape of the fitted curve.
# Chain of UniProt Q96KQ7 (Q96KQ7 whole entry, looked up): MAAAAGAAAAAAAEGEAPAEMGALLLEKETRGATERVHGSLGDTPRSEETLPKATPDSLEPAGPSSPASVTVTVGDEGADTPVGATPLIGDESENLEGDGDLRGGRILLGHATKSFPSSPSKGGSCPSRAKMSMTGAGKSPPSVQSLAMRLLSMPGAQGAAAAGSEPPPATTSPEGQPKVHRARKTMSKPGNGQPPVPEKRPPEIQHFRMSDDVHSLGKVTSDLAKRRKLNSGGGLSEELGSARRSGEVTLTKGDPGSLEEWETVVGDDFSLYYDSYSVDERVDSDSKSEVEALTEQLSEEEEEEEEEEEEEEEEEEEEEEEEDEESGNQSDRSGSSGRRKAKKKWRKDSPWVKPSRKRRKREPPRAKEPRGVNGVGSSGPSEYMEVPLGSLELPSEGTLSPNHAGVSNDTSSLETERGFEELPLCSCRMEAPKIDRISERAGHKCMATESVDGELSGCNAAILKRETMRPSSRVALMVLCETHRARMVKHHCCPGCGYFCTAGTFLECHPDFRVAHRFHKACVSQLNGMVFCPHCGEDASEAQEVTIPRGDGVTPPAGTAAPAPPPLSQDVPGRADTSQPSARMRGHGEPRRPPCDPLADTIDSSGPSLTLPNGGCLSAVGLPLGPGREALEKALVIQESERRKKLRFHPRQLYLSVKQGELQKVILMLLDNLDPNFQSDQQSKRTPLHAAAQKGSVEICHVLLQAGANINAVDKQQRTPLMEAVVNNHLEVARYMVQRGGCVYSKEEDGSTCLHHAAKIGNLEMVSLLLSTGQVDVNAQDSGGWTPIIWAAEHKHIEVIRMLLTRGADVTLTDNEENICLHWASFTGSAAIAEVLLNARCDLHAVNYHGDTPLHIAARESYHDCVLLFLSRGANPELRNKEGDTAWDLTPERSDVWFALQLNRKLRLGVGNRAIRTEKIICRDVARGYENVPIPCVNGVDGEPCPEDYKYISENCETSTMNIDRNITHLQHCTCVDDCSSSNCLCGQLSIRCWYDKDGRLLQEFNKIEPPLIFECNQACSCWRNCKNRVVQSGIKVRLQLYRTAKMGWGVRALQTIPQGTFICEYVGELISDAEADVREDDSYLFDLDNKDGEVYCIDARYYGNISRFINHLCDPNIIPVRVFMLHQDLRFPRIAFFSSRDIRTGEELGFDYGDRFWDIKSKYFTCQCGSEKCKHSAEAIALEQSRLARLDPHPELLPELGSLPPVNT
SMILES,"activity, negative = inhibition",Potency
COc1cccc(NC(=O)C(C)C)c1,inconclusive: -137% [inhibitor] [at 2.33 µM],
COc1ccc(OC)c(C2C=C(C34CC5CC(CC(C5)C3)C4)NC(=S)N2)c1 (centres undefined),,"inconclusive: 22.4 µM [inhibitor, single point]"
CSCCC(NC(=O)c1ccccc1)C(=O)OCC(=O)Nc1ccc(C)c(Cl)c1 (centres undefined),,"inconclusive: 35.5 µM [inhibitor, single point]"
COc1ccc(C(=O)c2cn(Cc3ccccc3F)c3ccc(F)cc3c2=O)cc1,inactive: -9.1%,
COc1ccc(CC(=O)N2CCN(C(=O)c3ccco3)CC2)cc1,inconclusive: -52.4% [inhibitor],
COc1cc(C(=O)Nc2ccccc2OCc2cc(=O)n3cc(C)sc3n2)cc(OC)c1OC,inactive: 22.1%,
Cc1ccc(-c2nnc(Nc3ccc(Cl)cc3)c3ccccc23)cc1S(=O)(=O)NCC1CCCO1 (centres undefined),inactive: -13.1%,
COc1ccccc1N1C(=O)CC(N2CCN(c3ccc([N+](=O)[O-])cc3)CC2)C1=O (centres undefined),,"inconclusive: 79.4 µM [inhibitor, single point]"
CC1(C)Oc2ccc3ccc(=O)oc3c2/C(=C/NC2CCCCC2)C1=O,,"inconclusive: 31.6 µM [inhibitor, single point]"
CC1(C)O[C@@H]2[C@H](O1)[C@@H](CO)O[C@H]2n1cnc2c(=O)[nH]cnc21,inactive: 6.49% [at 0.501 µM],
CC(=O)Nc1cccc(NC(=O)C2CC3CCC2C3)c1 (centres undefined),inconclusive: -72.2% [inhibitor],
O=C(NCCCn1ccnc1)c1cccc(S(=O)(=O)Nc2ccc(Br)cc2)c1,,active: 11.2 µM
O=C(CSc1ccc(-c2ccco2)nn1)NCc1ccc(Cl)cc1,,"inconclusive: 39.8 µM [inhibitor, single point]"
Cc1cc(NC(=O)CN(C)CC(=O)Nc2ccc(F)c(F)c2F)no1,,"inconclusive: 8.91 µM [inhibitor, single point]"
O=[N+]([O-])c1cccc(S(=O)(=O)N2CCCCCC2)c1,inactive: -27.8%,
Cc1ccc(Nc2c(-c3ccc(N(C)C)cc3)nc3ccccn23)cc1,,"inconclusive: 2.82 µM [inhibitor, full curve]"
Cc1ccc(S(=O)(=O)NNC(=O)c2sc(=S)n(C)c2C)cc1,,"inconclusive: 35.5 µM [inhibitor, single point]"
CCN(CC)c1ccc(CN(C(=O)c2cc(OC)c(OC)c(OC)c2)C2CCS(=O)(=O)C2)cc1 (centres undefined),,active: 35.5 µM
CCN(CC)CCOC(=O)c1ccc(NC(=O)c2nn(-c3ccc(C)cc3)c(=O)c3c2c2ccccc2n3C)cc1,,active: 3.16 µM
CSCCC1NC(=O)N(CC(=O)N2N=C(c3ccc(Cl)cc3)CC2c2ccco2)C1=O (centres undefined),,"inconclusive: 50.1 µM [inhibitor, partial curve]"
CN(CC(=O)Nc1ccccc1C(F)(F)F)C(=O)CSc1nc(N)cc(N)n1,,"inconclusive: 7.08 µM [inhibitor, single point]"
Cc1ccc(/C=N/NC(=O)CSc2ccccn2)o1,,"inconclusive: 56.2 µM [inhibitor, single point]"

SMILES,"activity, negative = inhibition",Potency
CN(Cc1ccc(F)cc1)C(=O)COc1ccc2ccccc2c1,inactive: 21.6% [at 102 µM],
COc1ccc(/C(O)=C2/C(=O)C(=O)N(Cc3ccco3)C2c2cccs2)cc1 (centres undefined),inactive: 10.4%,
COc1ccc(C)cc1S(=O)(=O)N1c2ccc(C)cc2C2CN(C)CCC21 (centres undefined),,"inconclusive: 50.1 µM [inhibitor, partial curve, poor fit]"
CCN(CC)c1ccc(/C=N/Nc2ccc(C)cc2)c(O)c1,,active: 1.78 µM
C=CCC1NS(=O)(=O)OC(CCc2ccccc2)C1O (centres undefined),,"inconclusive: 79.4 µM [inhibitor, single point]"
CCC(C)C(NC(=O)c1ccccc1NC(=O)c1ccccc1)C(=O)O (centres undefined),inactive: -18.7% [at 102 µM],
CCCn1nc(C(=O)NNC(=O)CSC(C)C(=O)Nc2cc(C)on2)c2ccccc2c1=O (centres undefined),,active: 22.4 µM
C=C(C)CCC1(C)NC(=O)N(c2ccccc2)N1 (centres undefined),,"inconclusive: 50.1 µM [inhibitor, single point]"
Cc1ccc(C(=O)CSc2nnnn2-c2ccccc2)o1,,"inconclusive: 79.4 µM [inhibitor, single point]"
Cc1cc(C)cc(-n2c(SC(C)C(=O)NCc3ccc4c(c3)OCO4)nc3ccccc3c2=O)c1 (centres undefined),inactive: -23.4% [at 102 µM],
Cc1ccc(C)c(NC(=O)C(=O)NCC(c2cccnc2)N2CCN(c3ccc(F)cc3)CC2)c1 (centres undefined),,"inconclusive: 8.91 µM [inhibitor, partial curve]"
NS(=O)(=O)c1ccc(CNC(=O)c2cc(-c3ccccn3)nc3ccc(Cl)cc23)cc1,,"inconclusive: 50.1 µM [inhibitor, partial curve, poor fit]"
CC/C(=C\C(=O)c1cccnc1)Nc1ccc(C)c(C)c1,,active: 39.8 µM
Cc1nn(-c2ccccc2)c2nc(N)c(C#N)c(-c3ccc(O)c(O)c3)c12,,"inconclusive: 89.1 µM [inhibitor, single point]"
CC1CC2(CCCC2)Nc2ccc(F)cc21 (centres undefined),inactive: 10.9% [at 2.33 µM],
CS(=O)(=O)Nc1ccc(C(=O)Nc2cccc([N+](=O)[O-])c2)cc1,,"inconclusive: 44.7 µM [inhibitor, partial curve, poor fit]"
Cc1cc(N2C(=O)C(=O)/C(=C(/O)c3ccccc3)C2c2cccs2)no1 (centres undefined),,"inconclusive: 89.1 µM [inhibitor, single point]"
CCC1OC(=O)C[C@@H](O)[C@H](C)[C@@H](OC2OC(C)CC(N(C)C)C2O)[C@@H](CC=O)C[C@@H](C)C(=O)/C=C/[C@]2(C)OC2C1C (some centres undefined),inactive: -0.0624% [at 12.7 µM],
Cc1nn(CCCC(=O)NCc2ccccc2)c(=O)c2c1sc1ccccc12,,"inconclusive: 44.7 µM [inhibitor, partial curve, poor fit]"
Cc1ccc(-n2nc(C(=O)N3CCCCC3C)c(=O)n(C)c2=O)cc1 (centres undefined),inactive: 3.66%,
CCOc1ccccc1NC(=O)C1CCN(S(=O)(=O)c2ccc(Br)cc2)CC1,inactive: -2.93%,
CCOc1ccc(Nc2nc(N)c([N+](=O)[O-])c(N3CCOCC3)n2)cc1,,"inconclusive: 0.501 µM [inhibitor, single point]"
